These results are taken from article PMC4336329 (PLoS ONE, 2015).

In all, about 310,000 compounds went through this assay and about 14,000 (4.5%) showed an effect of 50% or more. Effects have a minus sign here. The list shows a part of the results.
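Note: peak tail current of the secondary pulse compared with the same well before compound.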

Sequence of human ether-à-go-go-related gene (hERG) potassium channel (Q12809 whole entry, looked up): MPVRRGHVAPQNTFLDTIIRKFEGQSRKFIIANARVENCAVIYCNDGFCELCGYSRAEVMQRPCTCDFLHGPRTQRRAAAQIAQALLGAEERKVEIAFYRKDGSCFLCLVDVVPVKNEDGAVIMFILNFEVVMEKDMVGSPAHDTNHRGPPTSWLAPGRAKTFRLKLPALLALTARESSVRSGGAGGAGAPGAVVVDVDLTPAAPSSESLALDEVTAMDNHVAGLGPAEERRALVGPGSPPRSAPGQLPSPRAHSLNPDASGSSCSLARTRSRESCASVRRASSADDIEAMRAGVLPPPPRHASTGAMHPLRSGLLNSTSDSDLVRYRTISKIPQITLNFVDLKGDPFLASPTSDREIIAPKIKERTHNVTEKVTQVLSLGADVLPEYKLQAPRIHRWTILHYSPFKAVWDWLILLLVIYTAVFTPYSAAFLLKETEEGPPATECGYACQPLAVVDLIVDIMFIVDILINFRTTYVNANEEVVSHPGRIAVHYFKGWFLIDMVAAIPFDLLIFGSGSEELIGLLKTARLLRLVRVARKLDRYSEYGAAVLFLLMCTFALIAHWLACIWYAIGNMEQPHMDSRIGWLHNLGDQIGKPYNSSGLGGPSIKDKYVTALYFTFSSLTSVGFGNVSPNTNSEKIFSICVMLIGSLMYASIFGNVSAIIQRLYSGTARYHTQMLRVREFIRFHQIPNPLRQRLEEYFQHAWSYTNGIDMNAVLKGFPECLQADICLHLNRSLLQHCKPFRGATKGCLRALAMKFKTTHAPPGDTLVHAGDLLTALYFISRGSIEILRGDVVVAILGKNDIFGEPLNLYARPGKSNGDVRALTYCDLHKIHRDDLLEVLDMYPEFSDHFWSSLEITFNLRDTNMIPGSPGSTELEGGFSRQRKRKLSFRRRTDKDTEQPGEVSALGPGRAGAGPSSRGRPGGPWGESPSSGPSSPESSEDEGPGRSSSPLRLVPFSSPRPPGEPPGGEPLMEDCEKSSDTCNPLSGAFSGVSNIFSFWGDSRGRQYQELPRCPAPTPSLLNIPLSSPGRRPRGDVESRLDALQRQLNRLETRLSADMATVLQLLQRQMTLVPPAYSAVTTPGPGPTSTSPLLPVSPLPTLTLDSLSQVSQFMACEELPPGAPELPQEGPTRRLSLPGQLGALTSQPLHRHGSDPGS

The assay addresses human ether-à-go-go-related gene (hERG) potassium channel (human, UniProt Q12809). Put plainly: primary screen, population patch clamp on CHO cells stably expressing hERG.
On to `CCN(CCn1cccn1)C(=O)C1CCC(=O)N(CC2CCCCC2)C1` (centres unmarked), for which the “hERG current change (%, negative = inhibition) at 10uM” value is reported as 15.1%. `CC1CCCN(CC(O)COc2ccc(S(=O)(=O)N3CCCC3)cc2[N+](=O)[O-])C1` (centres unmarked): the “hERG current change (%, negative = inhibition) at 10uM” value was -14.6%.

Consider `CCn1nc(C(=O)Nc2cccc(C(F)(F)F)c2)c(Cl)c1Cl`, for which the “hERG current change (%, negative = inhibition) at 10uM” value is on record as 21.3%. The value for `O=C(Nc1ccccc1)c1cccc(S(=O)(=O)NCc2ccco2)c1` was -9.13%. As to `CCOc1ccc(CC2S/C(=N/N=C/c3ccco3)NC2=O)cc1` (centres unmarked), the “hERG current change (%, negative = inhibition) at 10uM” value stood at 17.2%. The value for `COc1ccc(N2CCN(C(=O)CN(CCc3ccccc3)S(C)(=O)=O)CC2)cc1` was -12.2%. The value for `COc1cc(CN(CCc2c(C)[nH]c3ccc(C)cc23)C(=S)NC(C)(C)C)cc(OC)c1OC` was 9.34%; that for `CCC(C(=O)Nc1cccnc1)c1ccccc1` (centres unmarked) was 15.6%. On to `CC1CCN(C(=O)CCl)CC1`, for which the “hERG current change (%, negative = inhibition) at 10uM” value turned out to be 20.2%. The value for `CN(C(=O)COC(=O)c1ccc(-c2ccc(O)cc2)cc1)C1CCS(=O)(=O)C1` (centres unmarked) was 10.8%; that for `Cc1ccc(NC(=O)COS(=O)c2ccc(C)cc2)cc1` (centres unmarked) was -7.21%.

In the case of `OCCN=C1CCCc2c1[nH]c1ccc(Br)cc21`, the “hERG current change (%, negative = inhibition) at 10uM” value was 6.45%. The value for `CC(=O)N1c2ccc(S(=O)(=O)N3CCC(C(=O)Nc4ccccn4)CC3)cc2CC1C` (centres unmarked) was 17.6%; that for `CCOCCCNC(=O)C1CCCN1C(=O)Nc1ccccc1[N+](=O)[O-]` (centres unmarked) was 5.03%. Turning to `COc1ccc(-c2nc(-n3c(C)c(C(C)=O)c(C(C)=O)c3C)sc2C)cc1OC`, the “hERG current change (%, negative = inhibition) at 10uM” value is -1.38%. The value for `O=C(c1ccc(Cl)c(NC2=NC3CS(=O)(=O)CC3S2)c1)N1CCN(c2ccc(F)cc2)CC1` (centres unmarked) was 17.6%.

Regarding `COc1ccccc1C(=O)Nc1cc(Cl)ccc1O`, the “hERG current change (%, negative = inhibition) at 10uM” value is listed as 11.2%. As for `CCCn1c(C(CO)Nc2nc(-c3cccc(Br)c3)cs2)nc2ccccc21` (centres unmarked), the “hERG current change (%, negative = inhibition) at 10uM” value is given as -2.42%.

As for `COc1ccc2c3n([n+]([O-])c2c1)CCN=C3c1ccc(C)cc1`, the “hERG current change (%, negative = inhibition) at 10uM” value is on record as -8.96%. `CC(=O)OC1C2CCCC1C([NH+]1CCCC1)CC2.[Cl-]` (centres unmarked): the “hERG current change (%, negative = inhibition) at 10uM” value was 3.57%. As to `COc1ccc(/C=N/OC/C(O)=C(\C#N)c2nc3ccccc3[nH]2)cc1OC`, the “hERG current change (%, negative = inhibition) at 10uM” value is -3.67%. For `CCOc1cc(Br)c(CN2C(=O)NC3(CCCCCC3)C2=O)cc1OCC`, the “hERG current change (%, negative = inhibition) at 10uM” value amounted to 18.4%.

On to `CCCCNC(=O)c1onc(CSc2cccc(OC)c2)c1C(=O)NCCCC`, for which the “hERG current change (%, negative = inhibition) at 10uM” value is -15.2%.

On to `O=c1[nH]nc(Cc2ccc(-c3ccccc3Cl)o2)c2ccccc12`, for which the “hERG current change (%, negative = inhibition) at 10uM” value is given as 4.34%. Under `CCOc1ccc(NC(=O)N2CCN(C(=O)c3ccco3)CC2)cc1` stands 3.54%; under `Fc1cccc2sc(N3CCCCC3)nc12`, 12.8%. The value for `COc1ccc(-n2nc3cc(C)c(N)c(Br)c3n2)cc1` was 8.19%. Under `CCn1nnnc1NCc1cccn1C` stands 15.9%. Take `CCOC(=O)C1CCCN(C(=O)c2cc(-c3ccccc3)on2)C1` (centres unmarked): the “hERG current change (%, negative = inhibition) at 10uM” value is reported as -15%. Under `CC1CCCC(NCC(=O)Nc2ccc(C(N)=O)cc2)C1C` (centres unmarked) stands 5.44%; under `Cc1ccc(NC(=O)CSc2nnc(-c3cc(C)[nH]n3)n2N)c(C)c1`, 14.6%; under `C/C(CC(=O)Nc1ccccc1F)=N\NC(=O)Cc1ccc(Cl)cc1`, -4.52%. For the compound `O=C(CSc1nnc(C2COc3ccccc3O2)o1)Nc1nccs1` (centres unmarked), the “hERG current change (%, negative = inhibition) at 10uM” value is reported as 7.26%. In the case of `COc1cccc(/C=N/NC(=O)C(=O)Nc2ccccc2OC(F)(F)C(F)F)c1O`, the “hERG current change (%, negative = inhibition) at 10uM” value turned out to be 0.623%. Under `Cc1sc2nc(-c3ccccn3)[nH]c(=O)c2c1-c1ccccc1` stands 20.9%; under `COc1cccc(CCc2nc3ccccc3c(=O)n2N)c1`, 6.13%. As to `CCN(C(=O)COC(=O)c1ccccc1SCC(=O)NC1CCCCCCC1)C1CCS(=O)(=O)C1` (centres unmarked), the “hERG current change (%, negative = inhibition) at 10uM” value is listed as -15.3%.

With `Cc1nc2ccccc2nc1OCC(=O)NCC(F)(F)F`, the “hERG current change (%, negative = inhibition) at 10uM” value is recorded as 4.95%. `COc1cc(NC(=O)C2CC(=O)N(Cc3ccco3)C2)cc(OC)c1` (centres unmarked): the “hERG current change (%, negative = inhibition) at 10uM” value was -6.64%. Under `CC(OC(=O)C1CC(=O)N(Cc2ccco2)C1)C(=O)Nc1ccccc1[N+](=O)[O-]` (centres unmarked) stands -19.1%. The value for `O=C(CSc1nnc(NC(=O)c2cccc(F)c2)s1)NCC1CCCO1` (centres unmarked) was 19.1%. The value for `CCOc1cccc(N2C(=O)CC(N3CCN(c4ccc(S(=O)(=O)CC)cc4)CC3)C2=O)c1` (centres unmarked) was -38.3%.

Turning to `CCCCCCC(=O)N/N=C/c1c(O)n(C2CC2)c(=S)[nH]c1=O`, the “hERG current change (%, negative = inhibition) at 10uM” value is -4.67%. For the compound `CCOc1cc2[nH]c(=O)n(CCCCC(=O)NC3CCCCCC3)c(=O)c2cc1OCC`, the “hERG current change (%, negative = inhibition) at 10uM” value is on record as -0.757%. In the case of `CC(C)[C@H](N)c1nnc2n1N=C(c1ccc(Cl)cc1)CS2.Cl`, the “hERG current change (%, negative = inhibition) at 10uM” value was -18%. For the compound `CCOCCN1CCN(c2nnc3n2-c2ccc(Cl)cc2C(c2ccccc2Cl)=NC3)CC1.O=CO`, the “hERG current change (%, negative = inhibition) at 10uM” value is given as -76.5%. As for `COc1ccc(Cl)cc1NC(=O)CN(C)Cc1ccc(OC)c(OC)c1`, the “hERG current change (%, negative = inhibition) at 10uM” value is recorded as -9.72%. Under `CCCCN(CCCC)S(=O)(=O)c1ccc(N2CCCC2=O)c([N+](=O)[O-])c1` stands -1.42%; under `O=C(Nn1cnnc1)c1ccc([N+](=O)[O-])cc1Cl`, 8.54%; under `CCN(C(=O)COC(=O)c1[nH]c(C)c(C(C)=O)c1C)C1CCS(=O)(=O)C1` (centres unmarked), -8.32%. As for `COc1ccc(C2=NCCn3cccc32)c(OC)c1`, the “hERG current change (%, negative = inhibition) at 10uM” value is listed as -49.2%.

Regarding `O=C(CSc1nccc(=O)[nH]1)N1c2ccccc2CCc2ccccc21`, the “hERG current change (%, negative = inhibition) at 10uM” value is recorded as 4.63%. On to `N#C/C(=C\c1ccc(-c2cccc([N+](=O)[O-])c2)o1)c1nnc(N2CCOCC2)n1-c1ccccc1`, for which the “hERG current change (%, negative = inhibition) at 10uM” value is reported as -31.2%. The value for `Cl.O=C(CSc1nc2ccccc2[nH]1)N1CCN(C(=O)c2ccco2)CC1` was -23.4%. The value for `CC(C)NP(=O)(NC(C)C)OP(=O)(NC(C)C)NC(C)C` was -0.00312%; that for `COC(=O)c1ccc(NC(=O)c2cn(-c3ccccc3)nc2-c2ccncc2)cc1` was -10.2%.
